Positions count from the first letter of the chain named. Some of the results follow.
T1: RBFOX1 RRM (Homo sapiens, UniProt Q9NWB1 109-208)
T1 sequence: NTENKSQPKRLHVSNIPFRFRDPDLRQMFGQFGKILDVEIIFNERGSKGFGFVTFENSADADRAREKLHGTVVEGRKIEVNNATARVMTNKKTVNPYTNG

B1: GUGUCGC (DNA:RNA)
RNA: GGGAGACCGGAAUUCAGAUUGUCCGUGUCGCUUAAAUCCCGUCGUAGCCACCA
DNA 1: CAATCTGAATTCCGGTCTCCC
DNA 2: TGGTGGCTACGACGGGATT
B2: UGCAUCC (DNA:RNA)
RNA: B1 RNA with G25U, U26G, G27C, U28A, C29U, G30C
DNA 1: CAATCTGAATTCCGGTCTCCC
DNA 2: TGGTGGCTACGACGGGATT
B3: CAUGAUU (DNA:RNA)
RNA: GGGAGACCGGAAUUCAGAUUGUCCCAUGAUUUUAAAUCCCGUCGUAGCCACCA
DNA 1: CAATCTGAATTCCGGTCTCCC
DNA 2: TGGTGGCTACGACGGGATT
B4: GCAAGGG (DNA:RNA)
RNA: B1 RNA with U26C, G27A, U28A, C29G, C31G
DNA 1: CAATCTGAATTCCGGTCTCCC
DNA 2: TGGTGGCTACGACGGGATT
B5: UAGAUGC (DNA:RNA)
RNA: B1 RNA with G25U, U26A, U28A, C29U
DNA 1: CAATCTGAATTCCGGTCTCCC
DNA 2: TGGTGGCTACGACGGGATT
B6: CACUUAA (DNA:RNA)
RNA: B3 RNA with U27C, G28U, A29U, U30A, U31A
DNA 1: CAATCTGAATTCCGGTCTCCC
DNA 2: TGGTGGCTACGACGGGATT
B7: UACGAUC (DNA:RNA)
RNA: B3 RNA with C25U, U27C, U31C
DNA 1: CAATCTGAATTCCGGTCTCCC
DNA 2: TGGTGGCTACGACGGGATT
B8: CGUAGAC (DNA:RNA)
RNA: B3 RNA with A26G, G28A, A29G, U30A, U31C
DNA 1: CAATCTGAATTCCGGTCTCCC
DNA 2: TGGTGGCTACGACGGGATT
B9: CGUUCGA (DNA:RNA)
RNA: B1 RNA with G25C, U26G, G27U, C31A
DNA 1: CAATCTGAATTCCGGTCTCCC
DNA 2: TGGTGGCTACGACGGGATT

These binders were tested against T1, RBFOX1 RRM (assay: EMSA; HiTS-Eq, 1 nM pool, 10 min; buffer printed only for the single-RNA assays: 10 mM Tris pH 7.5, 150 mM NaCl, 3.4 mM EDTA, 0.001% NP-40, 30 C). Settings: tags: His6 N-terminal (pET28a); label: 5' 32P.
Summary of the method: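 Relative association constants, normalised to the cognate motif, were derived by comparing read counts of each RNA species with those of the control reaction. The RNA sequenced was the free fraction, separated by 8% native PAGE after a 10 min equilibration in 50 µL of 1 nM 5′-radiolabelled RNA (7 randomized nucleotides) with increasing concentrations of purified wild-type or mutant RbFox RRM.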

Binder | binding signal
B1 | 0.0166 KA relative to UGCAUGU
B2 | 0.0337 KA relative to UGCAUGU
B3 | 0.00659 KA relative to UGCAUGU
B4 | 0.00604 KA relative to UGCAUGU
B5 | 0.0124 KA relative to UGCAUGU
B6 | 0.00318 KA relative to UGCAUGU
B7 | 0.00774 KA relative to UGCAUGU
B8 | 0.00754 KA relative to UGCAUGU
B9 | 0.0138 KA relative to UGCAUGU

From publication PMC9911399, “Two distinct binding modes provide the RNA-binding protein RbFox with extraordinary sequence specificity”
